Where “and” joins values, the source holds several entries; their conditions need not be identical. Equal values may be shown once. Part of at least one peptide drawing is inferred or uncertain, most often the ends. Numbered stars: 1 amine (or outer) side, 2 acyl side, 3 side chain; on linkers, the order of the positions; unused ones are H or OH. Square brackets hold non-standard residues; d marks the D form. Peptide text beside a SMILES is read from it. d(γGlu) = O=C(O)[C@@H](CCC(=O)[*:2])N[*:1]; dLac = C[C@@H](O)C(=O)O
What was measured:
[1] = system: mouse spleen cells; experiment: Mitogenic activities for mouse spleen cells ([3H] thymidine uptake); assay type: cell-based; settings: for 3H-thymidine uptake net cpm: av ± S.E: 48 hours culture, BALB/C spleen cells
[2] = system: Guinea pigs; experiment: Enhancing activities of cellular immunity and humoral antibody production (ovalbumin in FIA); assay type: in vivo; settings: for Humoral immunity hemagglutination titer (M ± S.E. log2): bled on day 16; for Cellular immunity skin reaction (m.m diameter, M ± S.E.): skin test day 14, read at 48 hours
[3] = system: Mice (DDY male 5-6 W); experiment: Blood stream clearance of carbon; assay type: in vivo; settings: carbon clearance measured 24 hours later
Experimental: 1. Carbon suspension. Rotoring drawing ink (170 mg carbon/ml.) was diluted to 1/5 of the original concentration in saline containing 1% gelatin. 2. 0.1% aqueous sodium carbonate solution. Mice (DDY male 5-6 W) were injected via the tail vein with a dose of 0.01 ml/g body weight of carbon. Blood samples were taken by means of a pointed capillary […] calibrated to hold a 50 μl and previously washed in heparin. This was plunged into the retroorbital venous sinus at the nasal angle of the eye. The samples were removed at 3 and 6 min. The blood was immediately discharged into 3.0 ml. of the sodium carbonate solution. This hemolyzed the blood and allowed the quantitation of carbon. The samples were then read in a spectrophotometer at 660 nm, the log concentration being obtained from a previously determined standard curve. The clearance value K may be determined by plotting log carbon concentration against time according to the following relationship; [formula] in which T1 and T2 represent the time in min when the sample were withdrawn and C1 and C2 represent the concentrations of carbon in the blood at the time T1 and T2, respectively. The aqueous solution of the drug as given was administered subcutaneously to mice. Twenty four hours later, blood stream clearance of carbon was measured. K value obtained with treated mice was compared with that of control mice.

[4] = dose 1 μg/site with ovalbumin in FIA
[5] = dose 10 μg/site with ovalbumin in FIA
[6] = dose 100 mg/mouse subcutaneously
[7] = dose 0.1 mg/mouse subcutaneously

| SMILES | 3H-thymidine uptake net cpm: av ± S.E ([1]; concentration 10 μg/ml) | 3H-thymidine uptake net cpm: av ± S.E ([1]; concentration 100 μg/ml) | K treated/K control ([3]; dose 1 mg/mouse subcutaneously) | K treated/K control [3, 6] | other results |
| --- | --- | --- | --- | --- | --- |
| C[C@H](NC(=O)[C@@H](C)O)C(=O)N[C@H](CCC(=O)N[C@@H](CCC[C@@H](N)C(=O)O)C(=O)NCC(=O)O)C(N)=O [Example 1 (Step 3), D-Lac-L-Ala-γ-D-Glu(α-NH2)-(L)-mesoDAP-(L)-GlyOH] | 757 ± 21 cpm | 1,966 ± 100 cpm |  |  | Humoral immunity hemagglutination titer (M ± S.E. log2) [2, 4]: 7.5 ± 0.4 log2; Humoral immunity hemagglutination titer (M ± S.E. log2) [2, 5]: 8.2 ± 0.4 log2 |
| CCCCCCC(=O)N[C@H](CCC(=O)N[C@@H](CCC[C@@H](NC(=O)CC[C@@H](NC(=O)CCCCCC)C(=O)O)C(=O)O)C(=O)O)C(=O)O [Example 3 (Step 2), Bis(heptanoyl-γ-D-Glu(α-OH))-mesoDAP] |  |  | 1.8 | 2.9 |  |
| C[C@@H](N)C(=O)N[C@H](CCC[C@H](NC(=O)CC[C@@H](N)C(=O)O)C(=O)O)C(=O)O [Example 5 (Step 3), γ-D-Glu(α-OH)-(L)-D-Ala-(D)-mesoDAP] |  |  | 0.7 | 1.2 |  |
| C[C@H](NC(=O)[C@@H](C)O)C(=O)N[C@H](CCC(=O)N[C@@H](Cc1ccc(O)cc1)C(=O)NCC(=O)O)C(=O)O [Example 7 (Step 2), D-Lac-L-Ala-γ-D-Glu(α-OH)-L-Tyr-GlyOH] (H-[dLac]A[d(γGlu)]YG-OH) |  |  | 2.4 |  | K treated/K control [3, 7]: 1.8 |
| CC(=O)N[C@H](CCC[C@H](NC(=O)CC[C@@H](NC(=O)[C@H](C)NC(=O)[C@@H](C)O)C(=O)O)C(=O)NCC(=O)O)C(=O)O [Example 8, D-Lac-L-Ala-γ-D-Glu(α-OH)-(L)-mesoDAP-(D)-acetyl-(L)-GlyOH] | 1,012 ± 85 cpm | 2,031 ± 118 cpm | 2.0 | 3.0 | Cellular immunity skin reaction (m.m diameter, M ± S.E.) [2, 4]: 2.0 ± 1.3 m.m; Cellular immunity skin reaction (m.m diameter, M ± S.E.) [2, 5]: 7.1 ± 1.1 m.m |
| CC(C)[C@H](NC(=O)CC[C@@H](NC(=O)[C@H](C)NC(=O)[C@@H](C)O)C(=O)O)C(=O)NCC(=O)O [Example 9 (Step 2), D-Lac-L-Ala-γ-D-Glu(α-OH)-L-Val-GlyOH] (H-[dLac]A[d(γGlu)]VG-OH) | 656 ± 6 cpm | 1,233 ± 108 cpm |  |  | Stimulation Index ([1]; concentration 10 μg/ml): 1.5; Stimulation Index ([1]; concentration 100 μg/ml): 2.7 |
| CCCCCCC(=O)N[C@H](CCC(=O)N[C@@H](CCC[C@@H](NC(=O)[C@@H](C)N)C(=O)O)C(=O)O)C(=O)O [Example 11 (Step 3), n-heptanoyl-γ-D-Glu(α-OH)-(L)-D-Ala-mesoDAP] |  |  | 0.9 | 1.3 |  |
| C[C@H](NC(=O)[C@@H](C)O)C(=O)N[C@H](CCC(=O)N[C@@H](CCC(=O)O)C(=O)NCC(=O)O)C(=O)O [Example 12 (Step 3), D-Lac-L-Ala-γ-D-Glu(α-OH)-L-Glu(γ-OH)-GlyOH] (H-[dLac]A[d(γGlu)]EG-OH) |  |  | 1.0 | 1.7 |  |
| C[C@H](NC(=O)[C@@H](C)O)C(=O)N[C@H](CCC(=O)N[C@@H](CCC[C@@H](NC(=O)[C@@H](C)NC(=O)[C@H](CCC[C@@H](N)C(=O)O)NC(=O)CC[C@@H](NC(=O)[C@H](C)NC(=O)[C@@H](C)O)C(=O)O)C(=O)O)C(=O)N[C@H](C)C(=O)O)C(=O)O [Example 14 (Step 2), D-Lac-L-Ala-γ-D-Glu(α-OH)-(L)-[D-Lac-L-Ala-γ-D-Glu(α-OH)-(L)-mesoDAP-(L)-D-Ala]-(D)-mesoDAP-(L)-D-Ala] |  |  | 1.9 | 1.6 |  |
| C[C@H](NC(=O)[C@@H](C)O)C(=O)N[C@H](CCC(=O)N[C@@H](CCC[C@@H](N)C(=O)O)C(=O)NCC(=O)O)C(=O)O [Reference Compound, reference compound] |  |  | 1.8 and 1.3 and 2.2 and 2.4 |  | K treated/K control [3, 7]: 2.0 |
